This note sets out measurements from the supplement of paper PMC4723716.

In all, about 3,600 compounds were measured (“viability index relative to DMSO control”: median about 0.81, lowest 2% from about 0.13 on). This is one part of the list.
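Also: 384-well serum-free SaLSSA: MitoTracker Red CMXRos staining with saponin lysis, high-content imaging, treated-well particle count divided by plate-mean count of DMSO wells.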

The test concerns Plasmodium falciparum NF54 stage V gametocytes. As to the kind of experiment: viability index relative to DMSO control (fraction); higher = less gametocyte killing. The note with it: 1.25 µM, incubation time: 72 h.
As for `N#Cc1cccc(C=CC(=O)O)c1`, the viability index was determined as 1.01. Then `Cc1ccc(COc2ccc3c(C#N)c4ccccn4c3c2)cc1`, with 0.325. For `COC(=O)C1=C(C)NC2=C(C(=O)CC(c3ccc(OC)c(OC)c3)C2)C1c1ccc(Br)cc1` (configuration not stated) the value was 0.66; for `COC(=O)C1=C(C)NC2=C(C(=O)CC(C)(C)C2)C1c1ccccc1[N+](=O)[O-]` (configuration not stated), 0.87; for `CCC(=O)N1CCc2cc(Br)cc(S(=O)(=O)N3CC(C)CC(C)C3)c21` (configuration not stated), 0.842. Then `CCOc1ccc2[nH]c3c(NCCCN4CCOCC4)ncnc3c2c1`, with 0.843. Turning to `CCCCOc1ccc(C(O)C(CN2CCCCC2)c2ccccc2)cc1` (configuration not stated), the viability index came to 0.842. For `O=C1C2C(C(=O)N1c1ccccc1F)C1(c3ccccc3)C(=O)C2(c2ccccc2)C(c2ccccc2)=C1c1ccccc1` (configuration not stated) the value was 0.943.

In turn, `COc1cc(OC)c(N(C)C(=O)c2cn(C3CCCC3)c(=O)c3c2c2ccccc2n3C)cc1Cl` gave a viability index of 0.566. As to `O=C(CCCOc1ccc(Cl)cc1Cl)NCCCn1ccnc1`, the viability index was determined as 1.08. For the molecule `COc1ccc2nc(NC(N)=NC(=O)Nc3ccccc3)nc(C)c2c1`, the viability index amounted to 0.923. For `CC(=O)N(C1=C(N2CCCC2)C(=O)c2ccccc2C1=O)c1ccc(F)c(F)c1` the value was 0.743; for `CCOC(=O)C1=C(C)NC2=C(C(=O)CC(c3ccc(Cl)cc3)C2)C1c1ccc(Cl)cc1` (configuration not stated), 0.626; for `CC(C)(C)C(=O)Cn1ccc(=N)c2ccccc21`, 1.15. Regarding `COc1ccc(NC2=C(N3CCCCC3)C(=O)c3ccccc3C2=O)cc1`, the viability index is 0.181.

For the molecule `Cc1ccc(-c2cc(-c3ccccc3)c(C#N)c(SCC(O)CS(=O)Cc3ccccc3)n2)cc1` (configuration not stated), the viability index turned out to be 0.876. The molecule `Cc1cccn2c(=O)c3cc(C(=O)NC4CCCC4)c(=N)n(CCc4ccccc4)c3nc12` returned a viability index of 0.614. For `Cc1ccc2nc3c(c(Nc4ccc(N(C)C)cc4)c2c1)CCC3` the value was 0.823. For `CC[n+]1c(C=C2Sc3ccccc3N2CCO)sc2ccccc21` the value was 0.88. For `Cc1cc2c(Nc3cccc(Cl)c3C)ncnc2s1` the value was 0.857. For the molecule `CCc1ccccc1N(CC(=O)NC1CCCCC1)C(=O)CCC(=O)Nc1ccccn1`, the viability index turned out to be 0.938.

`CC(NC(=S)N(Cc1ccco1)Cc1cc2cc3c(cc2[nH]c1=O)OCO3)c1ccccc1` (configuration not stated) registered a viability index of 0.627.

For the molecule `C(=NNc1nc2ccccc2[nH]1)c1ccc2c(c1)OCO2`, the viability index amounted to 0.645. Take `CCOC(=O)C1=C(C)NC2=C(C(=O)CC(c3ccc(OC)c(OC)c3)C2)C1c1ccccc1Cl` (configuration not stated): the viability index amounted to 0.228.

`O=C(CCCc1nc(-c2ccccc2)no1)NCc1cccnc1` gave a viability index of 0.964.

For the molecule `CCc1c(C)c(=N)c2ccccc2n1C`, the viability index is 0.801. `O=C(Nc1ccc2c(c1)S(=O)(=O)c1cc(NC(=O)c3cccs3)ccc1-2)c1cccs1` displayed a viability index of 0.649. For `CCn1c(N=Nc2ccc(OC)cc2)nc2ccccc21` the value was 0.269; for `CCn1c(SCc2ccc([N+](=O)[O-])cc2)nc2sc3c(c2c1=O)CCN(C)C3`, 0.969; for `CCCCN(CCCC)CCCNc1ncnc2c1[nH]c1ccc(C)cc12`, 0.744.

`CC1(C)Cc2c(sc(NC(=O)CCl)c2C#N)CO1` returned a viability index of 0.556.

In the case of `CC(=O)N(C1=C(N2CCCCC2)C(=O)c2ccccc2C1=O)c1cccc(Cl)c1`, the viability index was 0.144. The molecule `COc1ccc(OC)c(-c2ccc(O)c(CNCC3(N4CCCCC4)CCCCC3)c2)c1` gave a viability index of 0.357.

Molecule `Cc1ccc(C)c(N2C(=O)CC(Cc3ccc(Cl)cc3)C2=O)c1` (configuration not stated) gave a viability index of 0.746. For `CC1=C(CC(=O)c2cccs2)C(=O)c2ccccc2C1=O` the value was 0.748; for `Oc1ccccc1Nc1nc(-c2ccccc2O)nc2ccccc12`, 0.567; for `COc1ccc(OCC(=O)Nc2cccc(-c3nc4ncccc4o3)c2)cc1`, 0.76. For `COc1ccc(OC)c(C2CC(=O)N3CN(Cc4ccccc4)CSC3=C2C#N)c1` (configuration not stated) the value was 1.02; for `CN(C)c1oc(-c2ccc(Cl)cc2Cl)nc1[P+](c1ccccc1)(c1ccccc1)c1ccccc1`, 0.152. `CCOC(=O)c1sc(NC(=O)CSc2nnc(CNC(=O)COc3ccccc3)n2C)c(C(=O)OCC)c1C` registered a viability index of 1.06. `O=C(Nc1ccc(Oc2cccnc2)cc1)C1CCN(Cc2ccc3nonc3c2)CC1` gave a viability index of 0.913. For `O=c1c2c([nH]c3cc(Cl)ccc13)CCCC2` the value was 0.829; for `CCCS(=O)(=O)c1c(S(=O)(=O)CCC)c2ccc(C(C)=O)cn2c1C(=O)c1ccc(C)cc1`, 0.853; for `Cc1n(N)c2ccccc2[n+]1CC(=O)c1ccc([N+](=O)[O-])cc1`, 0.785. Consider `O=[N+]([O-])c1ccc(C=NNc2nc(Nc3ccccc3)nc(Nc3ccccc3)n2)o1`, for which the viability index was found to be 0.0664. As for `COc1ccc(Cl)cc1NC(=O)C1c2ccccc2C(=O)N(CC(C)C)C1c1cccs1` (configuration not stated), the viability index came to 0.426. Then `Cc1ccc(-c2c[n+](Cc3cccc(C)c3)c3n2CCC3)cc1`, with 0.883; and `COc1ccc(CCN2C(=O)c3ccc(Oc4ccc(NC(=O)c5oc(=O)c6ccccc6c5-c5ccccc5)cc4)cc3C2=O)cc1OC`, with 0.95; and `CC(=O)Nc1nc(C)c(-c2csc(Nc3ccc(C)cc3)n2)s1`, with 0.351. Take `COC(=O)c1ccc(C2C3=C(O)CC(c4ccc(C)cc4)CC3=Nc3ccccc3N2C(=O)c2cccs2)cc1` (configuration not stated): the viability index stood at 0.472. `N=c1n(Cc2ccccc2)c2ccccc2n1CC(O)c1ccc(Br)cc1` (configuration not stated) showed a viability index of 0.804. In the case of `Cc1ccc(S(=O)(=O)NC(=O)Nc2ccc(N(C)C)cc2)cc1`, the viability index was found to be 0.921. Then `CCOC(=O)C1=C(C)N=c2sc(=Cc3cc(Br)ccc3O)c(=O)n2C1c1ccc(OC)c(OC)c1` (configuration not stated), with 0.928. Consider `Cc1cc(OC(C)C(=O)N2CCc3ccccc32)ccc1Cl` (configuration not stated), for which the viability index came out at 1.36. For `Cc1ccc(-n2cc(C(=O)N(C)Cc3ccccc3)c3ccccc3c2=O)cc1C` the value was 0.979; for `CCOc1ccc2c(C)nc(NC(N)=NC(C)=O)nc2c1`, 0.688; for `COc1ccc(C2C(C(=O)Nc3cccc(C(F)(F)F)c3)c3ccccc3C(=O)N2C2CCCCC2)cc1` (configuration not stated), 0.679.
